# Screen size: about 310,000 compounds; about 2,200 (0.71%) showed an effect of 50% or more. Effects have a minus sign here. This is one part of the list.
# Biological target: human ether-à-go-go-related gene (hERG) potassium channel (human, UniProt Q12809)
# Assay: primary screen, population patch clamp on CHO cells stably expressing hERG
# Sequence of human ether-à-go-go-related gene (hERG) potassium channel (Q12809 whole entry, looked up): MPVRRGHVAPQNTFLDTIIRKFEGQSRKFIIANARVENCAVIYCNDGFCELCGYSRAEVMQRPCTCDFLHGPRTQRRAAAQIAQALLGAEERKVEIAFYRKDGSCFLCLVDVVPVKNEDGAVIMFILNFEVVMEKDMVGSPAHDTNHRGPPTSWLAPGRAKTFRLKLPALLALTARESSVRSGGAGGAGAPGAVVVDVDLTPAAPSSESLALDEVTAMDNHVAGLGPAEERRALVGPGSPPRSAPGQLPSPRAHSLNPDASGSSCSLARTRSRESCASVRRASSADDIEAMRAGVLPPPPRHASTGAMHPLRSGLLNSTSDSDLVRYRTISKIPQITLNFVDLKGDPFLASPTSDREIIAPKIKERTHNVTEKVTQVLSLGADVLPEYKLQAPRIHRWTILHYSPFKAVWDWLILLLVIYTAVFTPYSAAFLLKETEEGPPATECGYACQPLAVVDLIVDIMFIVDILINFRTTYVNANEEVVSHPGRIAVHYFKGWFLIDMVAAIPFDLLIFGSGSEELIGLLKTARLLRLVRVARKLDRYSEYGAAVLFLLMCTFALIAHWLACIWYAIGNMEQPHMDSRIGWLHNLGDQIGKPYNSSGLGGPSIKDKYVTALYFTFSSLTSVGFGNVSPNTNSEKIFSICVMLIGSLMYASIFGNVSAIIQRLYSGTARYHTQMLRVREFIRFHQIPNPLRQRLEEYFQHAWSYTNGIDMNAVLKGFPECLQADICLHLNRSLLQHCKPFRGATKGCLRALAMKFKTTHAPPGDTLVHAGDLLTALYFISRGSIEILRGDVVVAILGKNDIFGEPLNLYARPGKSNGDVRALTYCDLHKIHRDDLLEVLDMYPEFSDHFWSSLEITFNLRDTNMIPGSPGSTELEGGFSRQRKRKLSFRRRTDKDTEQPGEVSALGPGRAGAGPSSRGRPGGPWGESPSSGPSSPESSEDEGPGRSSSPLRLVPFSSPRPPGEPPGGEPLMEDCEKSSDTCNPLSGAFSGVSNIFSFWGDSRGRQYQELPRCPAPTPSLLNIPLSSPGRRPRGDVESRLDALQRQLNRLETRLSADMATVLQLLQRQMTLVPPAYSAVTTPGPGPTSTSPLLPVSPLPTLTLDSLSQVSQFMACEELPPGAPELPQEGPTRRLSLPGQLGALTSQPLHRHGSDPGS
row,SMILES,"hERG current change (%, negative = inhibition) at 1uM"
1,CCc1nnc(NS(=O)(=O)c2ccc(NC(=O)c3cc(Cl)ccc3[N+](=O)[O-])cc2)s1,13.4%
2,CS(=O)(=O)Nc1cccc(C2=NN(C(=O)CCCC(=O)O)C(c3cccs3)C2)c1 (stereo not drawn),7.78%
3,CNc1oc(C)nc1S(=O)(=O)c1ccc(C)cc1,11.2%
4,COc1ccccc1NS(=O)(=O)c1ccc2nc(CCl)[nH]c2c1,16.3%
5,Clc1ccc(Nc2ncnc3c2nnn3Cc2ccccc2)cc1,7.39%
6,C/C(=N\NC(=O)c1ccc(Cn2cc(Br)cn2)o1)c1cccc(NC(=O)C(C)C)c1,-6.97%
7,COc1ccc2occ(C(=O)c3ccc(N)cc3)c2c1,6.26%
8,Cc1cccc(-n2nc(C(=O)Nc3ccccc3)n3c(=O)cc(-c4ccccc4)nc23)c1,7.7%
9,CC(=O)Oc1ccc(-c2ccc(C(=O)Nc3cccc(S(=O)(=O)N4CCOCC4)c3)cc2)cc1,18.2%
10,Cc1cc(C)cc(C(=O)OCC(=O)NCCNC(=O)COC(=O)c2cc(C)cc(C)c2)c1,13.8%
11,COC(=O)CN1C(=O)C(C)(C)Oc2ccc(C(=O)Nc3ccccc3F)cc21,13.4%
12,COc1ccc(NC(=O)Cn2c(=O)n(-c3ccccc3)c(=O)c3oc4ccccc4c32)c(OC)c1,6.57%
13,CCC(=O)Nc1sc(C(=O)Nc2ccccc2OC)c(C)c1C(=O)OC,10.2%
14,CCOC(=O)c1ccccc1NC(=O)Cn1c(-c2nonc2N)nc2ccccc21,8.83%
15,O=C(NC(C1CC1)C1CC1)C1CCC(=O)N(CCCN2CCCC2=O)C1 (stereo not drawn),5.64%
16,OCCN(Cc1ccccc1)Cc1ccc(F)c(F)c1,1.31%
17,CN(C)c1ccc(-c2nnc(-c3ccccc3F)o2)cc1,3.55%
18,COc1ccccc1N(C)S(=O)(=O)c1ccc(C(=O)OCC(=O)N2CCC2)cc1,11.4%
19,O=C(c1ccccc1)N1CCN(c2n[nH]c(=O)[nH]c2=O)CC1,5.03%
20,COc1ccc(-n2ncc3c(N4CCCCC4)ncnc32)cc1,4.93%
21,CCN(CC)C(=O)CSc1nnc(-c2ccc(S(=O)(=O)NCc3ccccc3Cl)cc2)o1,-2.35%
22,O=C(NCC[C@@H]1C[C@@H]2C=C[C@H]1C2)c1cc(COc2ccc(F)cc2F)on1,11.1%

row,SMILES,"hERG current change (%, negative = inhibition) at 1uM"
1,O=C(c1ccc(N2CN(C(=O)c3ccco3)c3nc4ccccc4nc32)cc1)N1CCOCC1,-1.09%
2,O=C(CCSc1ccccc1)Nc1nc2c(s1)COc1ccccc1-2,10%
3,O=C(O)/C=C/c1ccc(S(=O)(=O)N(CCO)CCO)cc1,11.8%
4,O=S(=O)([O-])CCC[n+]1ccc(Oc2ccccc2)cc1,11.2%
5,Cc1cc(C(=O)Nc2ccccc2N2CCOCC2)no1,2.61%
6,COc1cc(/C=N/NC(=O)c2cccc(NC(=O)c3ccccc3)c2)ccc1O,4.96%
7,Cc1c(CN2CCC(CO)(CCOc3ccccc3)CC2)[nH]c2c(Cl)cccc12,-8.68%
8,Cc1ccc(-c2[nH]ncc2C(=O)c2cccc(F)c2)c(O)c1,5.93%
9,Cl.Fc1cccc(Nc2c3c(nc4ccccc24)CCC3)c1,-9.35%
10,Cc1ccc(-c2nn(-c3ccccc3)cc2C(=O)Nc2ccc(C)c(S(=O)(=O)N3CCOCC3)c2)cc1,10.3%
11,CC(C)CC(=O)NC(c1cccs1)c1ccc2cccnc2c1O (stereo not drawn),3.79%
12,Cc1cc(C)n(S(=O)(=O)c2ccc(F)cc2)n1,3.03%
13,Cc1nc(N2CCOCC2)nc(Oc2ccccc2F)c1[N+](=O)[O-],-1.98%
14,Cc1ccc(-c2nc(-c3ccccc3)no2)cc1,10.4%
15,CCN1CCN(Cc2c(C)[nH]c3ccc(C(=O)OC)cc3c2=O)CC1,-1.21%
16,Fc1ccccc1N1CCN(Cc2cc(-c3ccccc3)on2)CC1,13.3%
17,CC1CCCC(C)N1C(=O)COC(=O)CNC(=O)c1ccccc1 (stereo not drawn),8.52%
18,CC(OC(=O)Cc1c[nH]c2ccccc12)C(=O)NC1(C#N)CCCCC1 (stereo not drawn),23.4%
19,COc1ccc(CC(=O)Nc2cccc(S(=O)(=O)N3CCCCC3)c2)cc1,5.47%
20,C=CCNCCCOc1ccc(Cl)cc1C(C)(C)C.O=C(O)C(=O)O,-20%
21,COc1ccc(N2CCN(C(=O)c3cc4c(-c5cccc(OC)c5)nn(C)c4s3)CC2)cc1,14.5%
22,COc1cc(OC)cc(C(=O)NC(=S)Nc2ccc3[nH]c(=O)[nH]c3c2)c1,10.2%

row,SMILES,"hERG current change (%, negative = inhibition) at 1uM"
1,CCNC(=O)Oc1ccc(-c2csnn2)cc1,7.42%
2,Cc1cccc(C(C#N)c2ccc(Cl)nn2)c1 (stereo not drawn),8.57%
3,COc1ccc(C(=O)NCCCNC(=O)c2cnccn2)cc1,5.29%
4,CCOC(=O)c1cc(-c2csc(COc3ccc(Cl)cc3)n2)on1,10.4%
5,COc1ccc(/C=N/Nc2ncnc3scc(-c4ccccc4)c23)cc1OC,10.4%
6,CC1=NNC(=O)C1C(c1ccccc1)C1C(=O)NN=C1C.O=C(O)C(=O)O (stereo not drawn),5.86%
7,Cc1c(Cl)cccc1NC(=S)NCc1ccccc1,10.8%
8,CCOc1cc(C)c(S(=O)(=O)NCc2ccccn2)cc1C,5.57%
9,CCN(c1ccc(OC)cc1)S(=O)(=O)c1cc(-c2cc(C)no2)ccc1C(C)C,22.5%
10,COC(=O)c1c(NC(=O)C2CC(C)=C(C)CC2C(=O)O)sc2c1CCCCC2 (stereo not drawn),8.72%
11,COc1ccc(NC(=O)CN(C)C(=O)c2ccccc2SCC(=O)N2CCCC2)cc1,11.7%
12,CC(=O)N1CCN(c2ccc(NC(=O)c3ccc(N4CCCC4)c([N+](=O)[O-])c3)cc2Cl)CC1,-5.55%
13,COCCCNC(=O)CN1C(=O)CSc2ccc(S(=O)(=O)N3CCOCC3)cc21,2.83%
14,CCOc1ccccc1OCCN1CCCC1,11.3%
15,CC(C)(C)NS(=O)(=O)c1ccc(CCC(=O)NCc2ccccn2)cc1,13.3%
16,CCN(C(=O)CCc1nnc2ccc(NCc3ccco3)nn12)c1ccccc1,7.11%
17,CC(=O)c1c(C)[nH]c(C(=O)NCCc2ccccc2)c1C,12.1%
18,Cc1c(NC(=O)Oc2ccccc2)sc(=S)n1C,8.03%
19,Cc1cc(NS(=O)(=O)c2ccc(NC(=O)COc3ccc(Cl)cc3Cl)cc2)no1,-0.394%
20,Cc1ccc(S(=O)(=O)NCC(=O)N(CC(=O)NC2CCCC2)CC2CCCO2)cc1 (stereo not drawn),12.1%
21,S=C(Nc1ccccc1)Nc1nc2ccccc2n1CCOc1ccc(Br)cc1,11.1%
22,CC(=O)N=c1n(C)c2ccccc2n1CCOc1ccccc1,4.41%

row,SMILES,"hERG current change (%, negative = inhibition) at 1uM"
1,O=C(Nc1ccccc1C(=O)O)c1cccc(N2C(=O)c3ccccc3C2=O)c1,13.9%
2,C=CCOC(=O)c1ccc(-n2cncn2)nc1,9.27%
3,C=CCN(CC=C)C(=O)C1CC(=O)N(c2ccc(Br)cc2)C1 (stereo not drawn),-15%
4,Cc1ccc(CNC(=O)CCNS(=O)(=O)c2cccc3nonc23)cc1,26.9%
5,CCOc1ccc(/C=N/Nc2ccccc2)cc1,11.2%
6,O=[N+]([O-])c1cc(S(=O)(=O)N2CCOCC2)ccc1N1CCCC1,11.7%
7,COc1ccccc1Oc1ccc2c(c1)C(=O)N(c1ccc(Br)c3cccnc13)C2=O,1.75%
8,COc1cc(-c2nnc(-c3ccco3)o2)ccc1OCc1ccccc1,8.88%
9,COc1cc(NC(=O)C2CCCN(S(=O)(=O)c3ccc4[nH]c(=O)ccc4c3)C2)cc(OC)c1 (stereo not drawn),15.7%
10,COc1ccccc1-c1nnc2sc(C3CCCCC3)nn12,-8.68%
11,O=C1c2ccccc2C(=O)N1CCSc1n[nH]c(=S)s1,12.5%
12,CCOC(=O)Cc1csc(NC(=O)CSc2nc(=O)[nH]c3c2CCCC3)n1,5.6%
13,COc1cccc(NC(=O)CSc2nc3ccccc3c3nc4ccccc4n23)c1,-5.54%
14,CCCn1c(=O)[nH]c(=O)c2c1nc(-c1cccs1)n2CCOC,3.84%
15,Cc1ccc(N(CC(=O)NCCSCc2ccco2)S(=O)(=O)c2ccc(C)cc2)cc1,-28.8%
16,CN(C)S(=O)(=O)c1ccc(C(=O)N2CCC(c3nc4ccccc4o3)CC2)cc1,-3.18%
17,CCCc1cc(=O)oc2cc(OC(C)C(=O)NCCCn3ccnc3)ccc12 (stereo not drawn),-3.79%
18,c1ccc2c(c1)NC1(CCCCC1)n1c-2nc2ccccc21,0.831%
19,O=C(C[n+]1cc(Br)cc2ccccc21)c1ccc(Br)cc1.[Br-],-15.6%
20,CCc1ccc(N2CCN(C(=O)c3ccc4c(c3)OCO4)CC2)cc1,-5.89%
21,Cc1cccnc1NC(=O)CNC(=O)c1cccs1,4.75%

# — article PMC4336329 (PLoS ONE, 2015)
